{
  "source": "paper PMC6919601",
  "about": "“Identification of Plasmodium dipeptidyl aminopeptidase allosteric inhibitors by high throughput screening” (PLoS ONE, 2019)",
  "note": "In all, about 110,000 compounds went through this assay and about 230 (0.21%) showed an effect of 50% or more. The list shows a part of the results.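 Further: 30 min substrate incubation versus DMSO and 10 µM JCP410 controls.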",
  "data": [
    {"molecular_target": "DPAP1 (Plasmodium falciparum, UniProt Q8IIJ9)", "sequence (Q8IIJ9 whole entry, looked up)": "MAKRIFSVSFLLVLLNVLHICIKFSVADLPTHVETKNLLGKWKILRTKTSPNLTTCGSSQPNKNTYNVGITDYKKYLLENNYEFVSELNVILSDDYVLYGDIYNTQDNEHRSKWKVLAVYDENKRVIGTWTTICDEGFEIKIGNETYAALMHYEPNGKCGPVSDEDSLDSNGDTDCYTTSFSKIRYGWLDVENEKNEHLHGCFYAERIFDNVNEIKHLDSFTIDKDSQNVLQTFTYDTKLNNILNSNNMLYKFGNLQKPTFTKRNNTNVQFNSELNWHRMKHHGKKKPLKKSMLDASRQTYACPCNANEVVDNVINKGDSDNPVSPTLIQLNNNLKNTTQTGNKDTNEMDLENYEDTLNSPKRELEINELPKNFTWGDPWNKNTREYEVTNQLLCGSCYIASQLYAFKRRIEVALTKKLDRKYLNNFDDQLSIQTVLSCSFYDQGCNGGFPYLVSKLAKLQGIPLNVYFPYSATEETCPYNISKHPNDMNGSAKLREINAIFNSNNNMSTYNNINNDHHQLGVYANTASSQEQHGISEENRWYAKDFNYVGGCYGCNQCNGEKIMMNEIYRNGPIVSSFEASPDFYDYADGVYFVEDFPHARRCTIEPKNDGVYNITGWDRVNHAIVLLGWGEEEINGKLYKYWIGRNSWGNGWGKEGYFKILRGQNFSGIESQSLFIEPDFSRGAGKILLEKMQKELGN", "assay": "primary screen, percent inhibition; read by cleavage of a fluorogenic dipeptide substrate; higher = more effect of the substance", "design": "species or system P. falciparum D10 trophozoite lysates; single well", "units": {"% Inhibition @ 10 uM": "%"}, "values": [
      {"smiles": "CC1CC(C)CN(S(=O)(=O)N2CCCC(C(=O)NCCN3CCCC3)C2)C1", "note": "(stereo not drawn)", "% Inhibition @ 10 uM": 0.514},
      {"smiles": "Cc1nc(=O)c(-c2ccccc2)c(C)n1-c1cccc(C(=O)O)c1", "% Inhibition @ 10 uM": -1.85},
      {"smiles": "CCOc1cc(/C=C2/NC(=O)N(Cc3ccccc3F)C2=O)cc(Cl)c1OCC(=O)O", "% Inhibition @ 10 uM": 4.85},
      {"smiles": "O=c1n(Cc2ccccc2)c2ccc(Cl)cc2n1Cc1ccccc1", "% Inhibition @ 10 uM": -1.62},
      {"smiles": "CCc1[nH]nc2c1C(c1ccc(OCc3ccccc3)c(OC)c1)C(C#N)=C(N)O2", "note": "(stereo not drawn)", "% Inhibition @ 10 uM": -0.99},
      {"smiles": "CCCCc1nc2ccccc2n1Cc1ccccc1", "% Inhibition @ 10 uM": 2.73},
      {"smiles": "COc1ccc(-c2cn3nc(N4CCC(C(=O)NC(C)C)CC4)sc3n2)cc1", "% Inhibition @ 10 uM": 3.21},
      {"smiles": "CC(C)(C)NC(=O)CN1c2cccc3cccc(c23)S1(=O)=O", "% Inhibition @ 10 uM": -2.54},
      {"smiles": "COc1ccccc1NC(=O)C1=C(C)Nc2nc(CCCO)nn2C1c1cccc(F)c1", "note": "(stereo not drawn)", "% Inhibition @ 10 uM": -5.13},
      {"smiles": "N#CC1(NC(=O)[C@H](CC2CCCCC2)NC(=O)c2cccc(-c3cccc(OC(F)(F)F)c3)c2)CCS(=O)(=O)CC1", "% Inhibition @ 10 uM": 0.079},
      {"smiles": "O=C(c1cccc(C(F)(F)F)c1)N1CC(=O)N(CCc2ccccc2)C(=O)C1", "% Inhibition @ 10 uM": 16.4},
      {"smiles": "O=C(O)c1sc(Cl)cc1/C=C\\c1ccccc1", "% Inhibition @ 10 uM": -2.45},
      {"smiles": "CC(=O)NC(c1ccc(F)cc1)c1cccnc1", "note": "(stereo not drawn)", "% Inhibition @ 10 uM": -0.312},
      {"smiles": "FC(F)(F)c1cc(-c2ccccc2)nc(N2CCN(Cc3ccccc3)CC2)n1", "% Inhibition @ 10 uM": 0.287},
      {"smiles": "CCC(Cc1ccccc1)NC(=O)C1CCN(S(=O)(=O)c2c(C)n[nH]c2C)CC1", "note": "(stereo not drawn)", "% Inhibition @ 10 uM": -5.37},
      {"smiles": "O=C(c1ccc(O)cc1)c1ccccc1O", "% Inhibition @ 10 uM": 16.3},
      {"smiles": "Cc1cccc(OCCCCN2CCNCC2)c1", "% Inhibition @ 10 uM": 1.8},
      {"smiles": "CC1CCCCC1NC(=O)C1(S(=O)(=O)c2ccc(Cl)cc2)CC1", "note": "(stereo not drawn)", "% Inhibition @ 10 uM": 0.559},
      {"smiles": "COc1ccc(-n2c(CCC(=O)O)ccc2-c2ccccc2)cc1", "% Inhibition @ 10 uM": 1.31},
      {"smiles": "COc1ccc(-c2coc3cc(OCc4ccc(Br)cc4)cc(O)c3c2=O)cc1OC", "% Inhibition @ 10 uM": -2.91},
      {"smiles": "CCCCNC(=O)c1nn(C)c2c1COc1ccccc1-2", "% Inhibition @ 10 uM": -1.72},
      {"smiles": "O=C1NC(=O)/C(=C\\c2cccn2-c2ccccc2)N1", "% Inhibition @ 10 uM": -6.86},
      {"smiles": "Cc1cccc(-n2c(C)cc(C(=O)C(=O)Nc3nccs3)c2C)c1C", "% Inhibition @ 10 uM": -4.68},
      {"smiles": "COc1ccc(OC)c(NC(=O)c2ccc(Br)o2)c1", "% Inhibition @ 10 uM": -2.8},
      {"smiles": "COc1cccc(C2C(C#N)=C(N)N(c3nc[nH]n3)C3=C2C(=O)CCC3)c1", "note": "(stereo not drawn)", "% Inhibition @ 10 uM": -3.16},
      {"smiles": "COc1ccc(C(=O)CCN(C)C)cc1", "% Inhibition @ 10 uM": 3.82},
      {"smiles": "CC(=O)Nc1ccc(NC(=O)CSc2nc3ccc(NC(=O)c4ccc(C)cc4)cc3s2)cc1", "% Inhibition @ 10 uM": 4.67}
    ]}
  ]
}
